From ChEMBL document CHEMBL5606458, “ASAP - ZIKV NS2B-NS3 protease fluorescence single point” (2024)
The campaign covered roughly 2,700 compounds. About 160 (5.9%) showed an effect of 50% or more. The list shows a part of the results.

Target: Nonstructural protein 3 (Zika virus) (UniProt A0A024AXB9)
[1] = PRVABC59, Concentration 50.0 uM, Number of replicates 1.0
[2] = PRVABC59, Concentration 10.0 uM, Number of replicates 1.0
[3] = PRVABC59, Concentration 15.0 uM, Number of replicates 1.0

UniProt A0A024AXB9, sequence (A0A024AXB9 as listed by the source): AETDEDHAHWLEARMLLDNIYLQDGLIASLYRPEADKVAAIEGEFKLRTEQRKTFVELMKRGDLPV

N#Cc1cccnc1N1CCN(C(=O)C2CCN(c3ccc(C=O)cc3)CC2)CC1
inhibition [1]: -3.4%

CCCCCC(=O)N[C@H](C(=O)NCc1cccc(CN)c1)C(C)C
inhibition (PRVABC59, Concentration 49.5 uM, Number of replicates 2.0, Standard deviation 1.6604110062016018 %): -3.37%
inhibition (PRVABC59, Concentration 99.01 uM, Number of replicates 2.0, Standard deviation 0.686994979426725 %): -1.61%
inhibition (PRVABC59, Concentration 198.0 uM, Number of replicates 2.0, Standard deviation 1.5234270050454344 %): 1.78%

COc1ccc(-c2cc(NC(=O)C3CCN(c4ccc(C=O)cc4)CC3)[nH]n2)cc1
inhibition [1]: -8.36%

O=C(c1nc2ccccc2[nH]1)N1CCCC[C@H]1c1nc2ccccc2[nH]1
inhibition (PRVABC59, Concentration 49.5 uM, Number of replicates 2.0, Standard deviation 6.1042129746591085 %): -4.73%
inhibition (PRVABC59, Concentration 99.01 uM, Number of replicates 2.0, Standard deviation 3.7363658728701186 %): -3.45%
inhibition (PRVABC59, Concentration 198.0 uM, Number of replicates 2.0, Standard deviation 3.8832690926764766 %): -4.07%

COCC[C@@H](NC(=O)OCc1ccccc1)C(=O)Nc1cccc(CN)c1
inhibition (PRVABC59, Concentration 49.5 uM, Number of replicates 2.0, Standard deviation 1.3012513050396814 %): -1.25%
inhibition (PRVABC59, Concentration 99.01 uM, Number of replicates 2.0, Standard deviation 0.4150273719118387 %): 0.031%
inhibition (PRVABC59, Concentration 198.0 uM, Number of replicates 2.0, Standard deviation 0.38382224566943357 %): 3.21%

Cc1cc(NC(=O)C2CCN(c3ccc(C=O)cc3)CC2)cnc1Br
inhibition [1]: 14.9%

O=Cc1ccc(N2CCC(C(=O)NCc3ccc(SC(F)(F)F)cc3)CC2)cc1
inhibition [2]: 2.67%

O=Cc1ccc(N2CCC(C(=O)N3CCN(c4cccnc4)CC3)CC2)cc1
inhibition [1]: 20.5%

CN(Cc1cccc([N+](=O)[O-])c1)C(=O)c1cc(Cl)ccc1NS(=O)(=O)c1ccc(Oc2ccccc2Cl)cc1
inhibition [3]: 22.6%

O=C(NCC1(CO)CC1)[C@]1(c2ccc(F)cc2)CCCNC1
inhibition (PRVABC59, Concentration 49.5 uM, Number of replicates 2.0, Standard deviation 0.9681443832568309 %): -0.032%
inhibition (PRVABC59, Concentration 99.01 uM, Number of replicates 2.0, Standard deviation 1.2629623893806565 %): -0.015%
inhibition (PRVABC59, Concentration 198.0 uM, Number of replicates 2.0, Standard deviation 1.1811741328420227 %): -0.495%

CSCC[C@H](NC(=O)OC(C)(C)C)C(=O)N1CCC[C@H]1C(=O)N1CCNCC1
inhibition (PRVABC59, Concentration 49.5 uM, Number of replicates 2.0, Standard deviation 3.1362795073873433 %): -7.44%
inhibition (PRVABC59, Concentration 99.01 uM, Number of replicates 2.0, Standard deviation 3.0029926277825516 %): -6.05%
inhibition (PRVABC59, Concentration 198.0 uM, Number of replicates 2.0, Standard deviation 2.5930346155893305 %): -4.02%

Cc1c(Br)cnc(NC(=O)C2CCN(c3ccc(C=O)cc3)CC2)c1[N+](=O)[O-]
inhibition [1]: 22.8%

CS(=O)(=O)c1ccc(O)c(NC(=O)C2CCN(c3ccc(C=O)cc3)CC2)c1
inhibition [1]: 26.6%

O=C(c1cc(Cl)ccc1NS(=O)(=O)c1ccc(Oc2ccccc2Cl)cc1)N1CCC(c2noc3ccc(F)cc23)CC1
inhibition [3]: 8.36%

CN(CC[C@H](O)c1cccs1)C(=O)C1CCN(c2ccc(C=O)cc2)CC1
inhibition [1]: 27.6%

O=C(c1cc(Cl)ccc1NS(=O)(=O)c1ccc(Oc2ccccc2Cl)cc1)N(Cc1ccc([N+](=O)[O-])cc1)C1CC1
inhibition [3]: 15.4%

O=Cc1ccc(N2CCC(C(=O)Nc3cc(F)c(Br)c(F)c3)CC2)cc1
inhibition [1]: 24.5%

Cc1ccsc1CN(CC(C)C)C(=O)c1cc(Cl)ccc1NS(=O)(=O)c1ccc(Oc2ccccc2Cl)cc1
inhibition [3]: 24.9%

O=Cc1ccc(N2CCC(C(=O)NC3CCN(C(=O)C4CC4)CC3)CC2)cc1
inhibition [1]: 3.45%

O=C(c1cc(Cl)ccc1NS(=O)(=O)c1ccc(Oc2ccccc2Cl)cc1)N1CCN(c2cccc(O)c2)CC1
inhibition [3]: 26.1%

Cc1cc(CO)c2cccc(NC(=O)C3CCC(N)CC3)c2n1 (configuration not stated)
inhibition (PRVABC59, Concentration 49.95 uM, Number of replicates 2.0, Standard deviation 0.4998117214705663 %): 93.2%
inhibition (PRVABC59, Concentration 99.9 uM, Number of replicates 2.0, Standard deviation 0.37327676699721984 %): 95.4%

C[C@@H](C(=O)NCc1ccc(N2CCN(C)CC2)cc1)c1ccccc1
inhibition (PRVABC59, Concentration 49.5 uM, Number of replicates 2.0, Standard deviation 7.6370315408848 %): -2.24%
inhibition (PRVABC59, Concentration 99.01 uM, Number of replicates 2.0, Standard deviation 8.327090090436085 %): -3.26%
inhibition (PRVABC59, Concentration 198.0 uM, Number of replicates 2.0, Standard deviation 7.026223733637278 %): -2.93%

O=Cc1ccc(N2CCC(C(=O)N3CCN(C(=O)[C@@H]4CCCO4)CC3)CC2)cc1
inhibition [1]: 21.4%

O=Cc1ccc(N2CCC(C(=O)N3CCC(N4CCCC4=O)CC3)CC2)cc1
inhibition [1]: 23.2%

O=C(Nc1ccc(-n2ccnc2)cc1)c1cc(Cl)ccc1NS(=O)(=O)c1ccc(Oc2ccccc2Cl)cc1
inhibition [3]: 63.6%

O=Cc1ccc(N2CCC(C(=O)N3CC[C@@]4(O)CCCC[C@H]4C3)CC2)cc1
inhibition [1]: 25.9%

CNC(=O)c1cc(Cl)ccc1NS(=O)(=O)c1ccc(OC)nc1
inhibition (PRVABC59, Concentration 49.5 uM, Number of replicates 2.0, Standard deviation 0.29264209077575354 %): -3.57%
inhibition (PRVABC59, Concentration 99.01 uM, Number of replicates 2.0, Standard deviation 0.42851139208250477 %): -3.96%
inhibition (PRVABC59, Concentration 198.0 uM, Number of replicates 2.0, Standard deviation 1.5405512695954107 %): -5.44%

Cc1cc(CO)c2cccc(C[C@H](NC(=O)C(=O)c3ccco3)C(=O)O)c2n1
inhibition (PRVABC59, Concentration 49.95 uM, Number of replicates 2.0, Standard deviation 2.4287821935024936 %): -3.34%
inhibition (PRVABC59, Concentration 99.9 uM, Number of replicates 2.0, Standard deviation 2.478963622185565 %): 2.26%

CNC(=O)c1nc(Cl)ccc1NS(=O)(=O)c1ccc(Oc2ccccc2Cl)cc1
inhibition (PRVABC59, Concentration 49.5 uM, Number of replicates 2.0, Standard deviation 0.024233932131581936 %): -1.72%

COc1cccc(CNC(=O)c2cc(Cl)ccc2NS(=O)(=O)c2ccc(Oc3ccccc3Cl)cc2)c1OC
inhibition [3]: 26.8%

Cc1nn(Cc2cccc(F)c2F)cc1C1CCNCC1
inhibition (PRVABC59, Concentration 49.5 uM, Number of replicates 2.0, Standard deviation 2.5978663303026193 %): -8.52%
inhibition (PRVABC59, Concentration 99.01 uM, Number of replicates 2.0, Standard deviation 1.428439641032068 %): -8.17%
inhibition (PRVABC59, Concentration 198.0 uM, Number of replicates 2.0, Standard deviation 0.38658741610653635 %): -7.04%

O=C(NCCCOCCOCCO)c1cc(Cl)ccc1NS(=O)(=O)c1ccc(Oc2ccccc2Cl)cc1
inhibition [3]: 5.28%

NCc1cccc(NC(=O)[C@H]2c3ccccc3OCCN2C(=O)OCc2ccccc2)c1
inhibition (PRVABC59, Concentration 49.5 uM, Number of replicates 2.0, Standard deviation 1.6336698212723795 %): -1.56%
inhibition (PRVABC59, Concentration 99.01 uM, Number of replicates 2.0, Standard deviation 2.6735137910132156 %): -1.46%
inhibition (PRVABC59, Concentration 198.0 uM, Number of replicates 2.0, Standard deviation 0.8375799766974225 %): 0.557%

CC1(C)CC(O)CC(C)(C)N1C(=O)c1cc(Cl)ccc1NS(=O)(=O)c1ccc(Oc2ccccc2Cl)cc1
inhibition [3]: 17.1%

Cc1nccn1-c1ccc(NC(=O)C2CCN(c3ccc(C=O)cc3)CC2)cc1
inhibition [1]: 26.4%

CC(C)(C)c1ccc(O)c(NC(=O)C2CCN(c3ccc(C=O)cc3)CC2)c1
inhibition [1]: 29.1%

COc1ccc(Cl)c(NC(=O)c2cc(Cl)ccc2NS(=O)(=O)c2ccc(Oc3ccccc3Cl)cc2)c1
inhibition [3]: 25.8%

N#Cc1ccc(Cl)c(NC(=O)C2CCN(c3ccc(C=O)cc3)CC2)c1
inhibition [1]: 23.1%

N#CCCN(Cc1cccnc1)C(=O)C1CCN(c2ccc(C=O)cc2)CC1
inhibition [2]: 19.5%

O=Cc1ccc(N2CCC(C(=O)Nc3cccc(-c4ccccc4)c3)CC2)cc1
inhibition [1]: -1.54%

O=C1COc2cccc(CN3CCC(c4c[nH]c5cccnc45)CC3)c2N1
inhibition (PRVABC59, Concentration 49.5 uM, Number of replicates 2.0, Standard deviation 2.0822807293083656 %): 2.91%
inhibition (PRVABC59, Concentration 99.01 uM, Number of replicates 2.0, Standard deviation 2.4375393813923902 %): 5.58%
inhibition (PRVABC59, Concentration 198.0 uM, Number of replicates 2.0, Standard deviation 1.957810886118356 %): 3.25%

Cc1cccc(C)c1NC(=O)CN1CCN(C(=O)c2cc(Cl)ccc2NS(=O)(=O)c2ccc(Oc3ccccc3Cl)cc2)CC1
inhibition [3]: 16.7%

CNC(=O)c1cc(Cl)ccc1NS(=O)(=O)c1ccc(CN(C)C)cc1
inhibition (PRVABC59, Concentration 49.5 uM, Number of replicates 2.0, Standard deviation 0.11107237157276076 %): -1.35%
inhibition (PRVABC59, Concentration 99.01 uM, Number of replicates 2.0, Standard deviation 0.5937321801607277 %): -1.18%
inhibition (PRVABC59, Concentration 198.0 uM, Number of replicates 2.0, Standard deviation 1.4419211113183994 %): 1.44%
